Laboratory results taken from PubChem BioAssay AID1745853 (National Center for Advancing Translational Sciences (NCATS), 2022).
Several values for one entry are separate records, joined by “and”; a condition that tells them apart may be missing. Equal entries are not always repeated. The list shows a part of the results. Shown are side measurements of this screen, not its main read-out; they come without a call.

Assays:
Assay in all cases: Primary Screen for Target Class Profiling of Small Molecule Inhibitors of Methyltransferases
[1] = molecular target: Glycine N-methyltransferase (Homo sapiens) (UniProt Q14749); settings: purified enzyme, MTase-Glo SAH luminescence; measured here: GNMT inhibition; at 40 µM; stronger effect = lower value
Summary of the method: (§1)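 Each enzyme was assayed with SAM and its substrate. SAH formation detected by MTase-Glo luminescence; single-point 40 uM screen[…].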

[2] = molecular target: Guanidinoacetate N-methyltransferase (Homo sapiens) (UniProt Q14353); settings: purified enzyme, MTase-Glo SAH luminescence; measured here: GAMT inhibition; at 40 µM; stronger effect = lower value
Summary of the method: as §1

[3] = molecular target: Histamine N-methyltransferase (Homo sapiens) (UniProt P50135); settings: purified enzyme, MTase-Glo SAH luminescence; measured here: HNMT inhibition; at 40 µM; stronger effect = lower value
Summary of the method: as §1

[4] = molecular target: Nicotinamide N-methyltransferase (Homo sapiens) (UniProt P40261); settings: purified enzyme, MTase-Glo SAH luminescence; measured here: NNMT inhibition; at 40 µM; stronger effect = lower value
Summary of the method: as §1

[5] = molecular target: Phenylethanolamine N-methyltransferase (Homo sapiens) (UniProt P11086); settings: purified enzyme, MTase-Glo SAH luminescence; measured here: PNMT inhibition; at 40 µM; stronger effect = lower value
Summary of the method: as §1
On the % scale 0 is the no-effect control and ±100 the full control effect.

Row | SMILES | activity change, negative = inhibition [1] | activity change, negative = inhibition [2] | activity change, negative = inhibition [3] | activity change, negative = inhibition [4] | activity change, negative = inhibition [5]
1 | CCN(CCCOc1ccc2c(Nc3cc(CC(=O)Nc4cccc(F)c4)[nH]n3)ncnc2c1)CCOP(=O)(O)O | -1.65% | -3.2% | 3.74% | -16.8% | -1.55%
2 | OCC1(Cc2ccccc2)CCCN(Cc2cn[nH]c2-c2ccc(F)cc2)C1 (stereo not drawn) | -56.6% | -2.42% | -9.29% | -10.3% | -1.83%
3 | COc1ccc2cc3n(c2c1)CC(C)(C(=O)NC1CCCCC1)N(CCCc1ccccc1)C3=O (stereo not drawn) | 3.79% | 0.121% | 5.8% | 7.21% | 0.078%
4 | CC(C)(C)c1cc(C[C@H]2CNCC[C@H]2CC(=O)NC2CCCCC2)no1 | -5.89% | -9.36% | -4.67% | -19.5% | -14.5%
5 | COc1ccc(-c2nnc3c4ccccc4c(C)nn23)cc1S(=O)(=O)N1CCC(C)CC1 | 2.69% | 0% | 10.2% | 16.9% | 2.25%
6 | CCc1ccc(-c2cc3n(n2)CC(C)(C(=O)NC2CCCCCC2)N(CC)C3=O)cc1 (stereo not drawn) | 1.16% | 0% | 2.71% | 5.89% | 2.49%
7 | O=C(N[C@H]1CO[C@H]2[C@@H]1OC[C@@H]2Nc1nccc(-c2ccco2)n1)c1ccco1 | -19.4% | -4.39% | -1.53% | -10.4% | 2.6%
8 | CC(C)[C@@H](CS(=O)(=O)C(C)C)N1C(=O)[C@@](C)(CC(=O)O)C[C@H](c2cccc(Cl)c2)[C@H]1c1ccc(Cl)cc1 | 0.975% | 4.9% | 10.7% | -18% | 8.08%
9 | Cc1cccc(Cn2nc3n(CC(C)C)c(=O)c4ccc(C(=O)NC5CCCC5)cc4n3c2=O)c1 | 0.591% | 1.16% | 4.24% | 1.04% | 3.81%
10 | COCCN(C)Cc1ccc(CC2CCN(S(=O)(=O)c3ccccc3)CC2)cc1 | -4.37% | 3.19% | -15.9% | -8.2% | -4.41%
11 | CC(C)[C@@H](c1ccc(C(F)(F)F)cc1CN(Cc1cc(C(F)(F)F)cc(C(F)(F)F)c1)c1nnn(C)n1)N1CCC(C(=O)O)CC1 | -5.07% | 16.6% | 3.54% | -14.3% | -1.59%
12 | CCCN1C(=O)c2c(C(=O)NCCC(C)C)ncn2CC1(C)C(=O)NCc1ccc(F)cc1 (stereo not drawn) | 2.55% | 1.42% | 4.95% | 0.736% | 7.91%
13 | O=C(O)C[C@H]1CCC(=O)[C@@H]1C/C=C\CCO | -0.139% | -2.55% | 4.04% | -12.4% | -10.9%
14 | COCc1noc([C@@H]2CC(F)(F)CN2C(=O)Cc2cccc(F)c2)n1 | 0.28% | 8.34% | 1.48% | -1.94% | -5.52%
15 | COc1ccc2cc3n(c2c1)CC(C)(C(=O)NC1CCCCC1)N(C1CCCC1)C3=O (stereo not drawn) | 2.72% | -1.71% | 4.81% | -3.72% | -2.09%
16 | CCCn1c(=O)c2ccccc2n2c(SCC(=O)NCc3ccccc3)nnc12 | 5.05% | 1.08% | 13.3% | 5.65% | 8.9%
17 | O=Nc1c2[nH]c3ccccc3nc-2c2ccccc12 | – | -4.37% | – | -30.2% | -27%
18 | COC(=O)c1cc2n(n1)CC(C)(C(=O)NC1CCCCC1)N(c1ccc(C)c(C)c1)C2=O (stereo not drawn) | 2.68% | 0.524% | 8.97% | 6.82% | 3.91%
19 | Cc1cn2nc(C(=O)N3CCC(C(=O)NCc4ccccn4)CC3)cc2c(=O)[nH]1 | -2.48% | -6.07% | -1.23% | -4.56% | -14.2%

Row | SMILES | activity change, negative = inhibition [1] | activity change, negative = inhibition [2] | activity change, negative = inhibition [3] | activity change, negative = inhibition [4] | activity change, negative = inhibition [5]
20 | O=C(Nc1ccccc1Cl)N1Cc2c(sc3c2CCCC3)-n2cccc2C1c1cccc(F)c1 (stereo not drawn) | -4.2% | 1.08% | 2.65% | -3.89% | 0.786%
21 | COc1ccc(CN2Cc3[nH]cnc3C[C@H]2c2nc(Cc3ccccc3)no2)cc1 | -10% | -4.12% | -9.69% | -19.1% | -11.1%
22 | Cc1ccc(NC(=O)N2Cc3c(sc4c3CCCC4)-n3cccc3C2c2ccc(F)cc2)cc1 (stereo not drawn) | -1.68% | 0% | -1.43% | -11% | 0.548%
23 | Cc1cccc(N2CCN(C(=O)Cn3ccc4cc(S(=O)(=O)N5CCCCC5)ccc43)CC2C)c1 (stereo not drawn) | -7.1% | -1% | -8.42% | -12.9% | -5.29%
24 | O=C(c1cccs1)N1CCCCCC1CN1CCCC1 (stereo not drawn) | -8.52% | -7.37% | -17.5% | -10.9% | -13.5%
25 | COC(=O)c1cc2n(n1)CC(C)(C(=O)NC1CCCCC1)N(Cc1ccc(OC(C)C)cc1)C2=O (stereo not drawn) | 8.09% | 1.61% | 11.9% | 9.18% | 9.86%
26 | O=C(NCCN1CCC(n2c(=O)[nH]c3ccccc32)CC1)c1ccc2ccccc2c1 | -29.9% | -1.65% | -0.76% | -26.9% | -16.6%
27 | COc1ccc(CCNC(=O)CCCc2nnc3n4nc(-c5ccccc5)nc4c4ccccc4n23)cc1OC | -10.6% | 0% | 5.27% | 5.21% | -2.58%
28 | Cc1cc(CN2C[C@@H](CO)[C@H](C(=O)N(C)C)C2)n(C)n1 | -4.87% | -10.3% | -3.63% | -6.62% | 1.85%
29 | Cc1ccsc1C(=O)N1CCCC(CN2CCCC2)CC1 (stereo not drawn) | -12.4% | -10.7% | -28.8% | -11.4% | 0.177%
30 | O=c1c(O)c(-c2ccc(O)c(O)c2)oc2cc(O)cc(O)c12 | -55.6% and 31.8% | -0.203% and -1.78% | -13.3% and -6.99% | -6.06% and 4.25% | -6.63% and -7.69%
31 | CCOC(=O)C1=C(O)C(=O)N(Cc2ccccc2)C1 | -12.4% | 0.982% | -2.16% | -2.91% | 1.97%
32 | COc1ccc(CNC(=O)c2cc3n(n2)CC(C)(C(=O)NCc2ccc(F)cc2)N(C)C3=O)cc1 (stereo not drawn) | 3.58% | 4.54% | -1.15% | 4.35% | 0.971%
33 | CO[C@H]1O[C@@H]2O[C@]3(C)CC[C@@H]4[C@@H](C)CC[C@H]([C@H]1C)[C@]24OO3 | -3.52% | 5.98% | -0.847% | -3.46% | 7.42%
34 | O=C(c1cncc(Br)c1)N1CCC(N2CCCC2)CC1 | 6.95% | 7.52% | 6.71% | -5.5% | 6.35%
35 | Cc1ccc(N2C(=O)c3ccc(-c4ccco4)n3CC2(C)C(=O)NC2CCCC2)cc1C (stereo not drawn) | -6.07% | 1.17% | -2.68% | -0.141% | -6.25%
36 | CCCN1C(=O)c2cc(C(=O)NCc3ccc(CC)cc3)nn2CC1(C)C(=O)NC1CCCC1 (stereo not drawn) | -1.01% | 0.355% | -0.424% | -2.6% | -4.38%
37 | CCN1C(=O)c2cc(C(=O)NCCCN3CCN(C)CC3)nn2CC1(C)C(=O)NC1CCCC1 (stereo not drawn) | 4.66% | 3.56% | -3.84% | 4.67% | 3.52%
38 | N[C@H](C(=O)O)[C@H]1C[C@@H]1C(=O)O | -6.21% | 4.71% | 1.8% | -4.35% | 5.63%
